This note sets out measurements from the supplement of paper PMC11417369.

This is one part of the list.

For this assay, the system named is PF3D7_0420300 AP2 domain 1 (GST-tagged). The assay can be described thus: gcPBM binding intensity (ln(normalized median fluorescence intensity)); higher = stronger DNA binding. The method, boiled down:
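Each value is the highest Masliner-normalised natural-log median intensity across replicate spots of either orientation of a probe. The probes were primer-extended double-stranded 36-bp intergenic genomic sequences on an Agilent 4 × 180k array, alongside negative controls, exposed for 1 h to GST-tagged P. falciparum DNA-binding domains expressed in E. coli. Bound protein was picked up with Alexa488 anti-GST antibody and scanned at 488 nm.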
With “ATGTAATGTTATGTTATGTTTTTTTTTTTTTTGTGT [CACACA_negctrl_site1264]”, the “gcPBM binding intensity (ln)” value was 9.58.
As for “AAAATTATATATTTTAGTACATAAAATATTGACATA [XGTACX_site2581]”, the figure is 9.06; as for “TTTTAAACAGGACACACACACATATATATATATATA [CACACA_site4664]”, 9.66.
As for “GTTATTGTAAAAAGATTACACACGTTCTATATACTT [CACACA_site2473]”, the figure is 9.54.
In the case of “GGAATATGTATATTTTGTACGTATACATTTTTTGGG [XGTACX_site7681]” it was 9.4; in that of “GATATATTTTATATATGTACATACAGTGGTAAATAT [XGTACX_site1324]”, 9.31; in that of “TTTATACAAAAAAACAAAATCAAACAAAAAAAAAAA [CACACA_negctrl_site252]”, 9.19.
As for “CAAAAAAGGTCCCGGAGTACATATATAATTTTTTTT [XGTACX_site458]”, the “gcPBM binding intensity (ln)” value came out at 9.23.
Turning to “GAGATGACATTACACAGTACCCAGGAAATCTACGGA [XGTACX_site4931]”, the “gcPBM binding intensity (ln)” value amounted to 9.32.
As for “TATATATTGTTATATACACACATGTATATAAAAAAT [CACACA_site3221]”, the figure is 9.4; as for “ATTGTCCTAAATACTACAAAGTAGATCTTTAATATT [CACACA_negctrl_site1795]”, 9.15.
With “TAATTCCATAAGTAAACACACAAATGCCAAAATTTT [CACACA_site3205]”, the “gcPBM binding intensity (ln)” value worked out at 9.42.
Take “GTGCGTGCGTGTACTTAACACACATAATATGTATTT [CACACA_site8336]”: the “gcPBM binding intensity (ln)” value worked out at 9.51.
In the case of TCCATATGCAAACTGGTGCACAAGTAGCTTTTATAT it was 9.19; in that of “TTAAGCCGCAATATGGGTACATAGGAAGAAGGGGAA [XGTACX_site8397]”, 9.25; in that of “ATATATAAAAATATTTGTACATATAGTTATATTTAT [XGTACX_site6114]”, 9.26.
Take “TTCTTTGCTTCTGTTTCACACATTTTTAAAATAAGC [CACACA_site4741]”: the “gcPBM binding intensity (ln)” value amounted to 9.52.
In the case of “TTTCTTTTTCTAGTTATTTTTACTTATCCCTAATTT [TGCATGCA_negctrl_site460]” it was 9.2.
As for “TTATAATTAAGATATAATCAATAATAACAAATGAAC [CACACA_negctrl_site1690]”, the figure is 9.37; as for “TTAAAGGGAATGTATACACACGTTTCTCTATGTTAT [CACACA_site4793]”, 9.57; as for “TTGTATTTACACGATCAACCAAATGGTATATAAATA [GTGCAC_negctrl_site167]”, 9.1.
Turning to “ATATGTAGTTTTTACCTAATAAAAAAAAAAAAAAAA [CACACA_negctrl_site672]”, the “gcPBM binding intensity (ln)” value is 8.58.
“AAATCATTCCTTTATTCACACAATATCTGTATTTAT [CACACA_site4407]”: the “gcPBM binding intensity (ln)” value stood at 9.51.
With “TAAACATATAAAAAGGGTACACATTAAACATAGTAT [XGTACX_site7096]”, the “gcPBM binding intensity (ln)” value was 9.44.
Consider “AAAACAAATTAAAATCGTACAATTATAATGTTAATG [XGTACX_site180]”, for which the “gcPBM binding intensity (ln)” value was determined as 9.2.
As for “TATAAAATAAAAATTATATATTTTAAATGGATACAA [TGCATGCA_negctrl_site284]”, the figure is 8.99; as for “ATAGCTAAGATAGCTTGTACATATATTTACATATAT [XGTACX_site3694]”, 9.2; as for “ATGCACATTTATAAAAGTACATGTATGTAATATGTT [XGTACX_site830]”, 9.19.
Regarding “ATTTAAATGAAAAAATGTACAAAAAGATTTAAACTC [XGTACX_site1489]”, the “gcPBM binding intensity (ln)” value turned out to be 9.31.
With “AATGTCCTTATTTGCACACACACATATAAGAAATTT [CACACA_site3186]”, the “gcPBM binding intensity (ln)” value is 10.
For the sequence “ATTTGAGAGTTAACAAAATATTTGGCCATCTTTTAT [XGTACX_negctrl_site447]”, the “gcPBM binding intensity (ln)” value amounted to 9.11.
As to “TATAATAAATCATATGCATGTTGAAAAAAAAAAAAA [TGCATGCA_site923]”, the “gcPBM binding intensity (ln)” value came to 9.12.
With “AACTCATAGCGGTGTGCACACAAAAAATTAAAAAAA [CACACA_site3033]”, the “gcPBM binding intensity (ln)” value was determined as 9.73.
In the case of “TCATAAATGAAACACACACACACATCTGGATACCCC [CACACA_site3332]” it was 10.1; in that of “ATTATATATATAAAGTGTACAAAAAAAAAAAAAAAA [XGTACX_site3134]”, 9.09.
Consider “AATCAATATAAATAAAATTTTTAATTTTAACCCTAA [GTGCAC_negctrl_site266]”, for which the “gcPBM binding intensity (ln)” value worked out at 9.03.
For “TAATAATATATTTGTAGTACACAATTTTTTATAACT [XGTACX_site3951]”, the “gcPBM binding intensity (ln)” value came out at 9.18.
Turning to “TACTTATATACACATGTATATTATATATATAATATA [XGTACX_negctrl_site335]”, the “gcPBM binding intensity (ln)” value turned out to be 9.2.
With “TGTTATTAAAATATAGTGCATAATTAACCATTATAA [GTGCAC_site9594]”, the “gcPBM binding intensity (ln)” value worked out at 9.1.
Take “CACACGCACGGACACACACACATATAAAATCTATAT [CACACA_site6428]”: the “gcPBM binding intensity (ln)” value was 9.91.
“TACTATAACAGACATACACACAAAAAAAAAAAAAAA [CACACA_site538]”: the “gcPBM binding intensity (ln)” value was determined as 9.52.
For the sequence “ATATTTAACAGGTTAAAAATATAAACAAATAAATAA [CACACA_negctrl_site907]”, the “gcPBM binding intensity (ln)” value came out at 9.22.
In the case of “ATTTTTTTTTTTTTTTTTTTTTTTTTTTAATCTGGA [CACACA_negctrl_site1347]” it was 8.86; in that of “GAGAGGATAGTTCACAGTACTCAGTAACTCTACGGA [XGTACX_site4875]”, 9.22; in that of “ATATTTTGTTATGTAGATGTTGGTAGGAATTTTGGT [CACACA_negctrl_site1104]”, 9.45.
On to “AATAAATAAATAAATAAAACAAAGGGATTACATACA [TGCATGCA_negctrl_site513]”, for which the “gcPBM binding intensity (ln)” value was 9.43.
On to “CACAACATATATATATATATATATATATATATGTGT [CACACA_negctrl_site28]”, for which the “gcPBM binding intensity (ln)” value was found to be 9.06.
“TACTTTTTAGGAAAGTGTACAAGCATATAAGGAATA [XGTACX_site2834]”: the “gcPBM binding intensity (ln)” value is 9.2.
Consider “TTAAAAAAATATTGAAGTACACACATTATAAACTTT [XGTACX_site3548]”, for which the “gcPBM binding intensity (ln)” value came to 9.31.
As for “ATATAATAAAATTAATGTACATATATGTATTATATA [XGTACX_site3283]”, the “gcPBM binding intensity (ln)” value was found to be 9.24.
For “TTTCATATATATGAAACACACAAAGGAAAAAAAATT [CACACA_site4144]”, the “gcPBM binding intensity (ln)” value came to 9.49.
As to “ACAAGTTTATTTGTTGCACACATATAAGTAGAGAAA [CACACA_site8994]”, the “gcPBM binding intensity (ln)” value turned out to be 9.3.
As to “AAAAAAAAAAAACACACACACATAGACCTCCAATAG [CACACA_site3562]”, the “gcPBM binding intensity (ln)” value turned out to be 9.95.
“AACATAATCTCATATACACACAAAAATATTGAAATA [CACACA_site7085]”: the “gcPBM binding intensity (ln)” value is 9.62.
Regarding “GCTCATATGACAACAACACACAAAAAAATAAAATGA [CACACA_site714]”, the “gcPBM binding intensity (ln)” value worked out at 9.48.
For ATATAATAACAAAAGGTGCGCATTAAGACAAAAAAA, the “gcPBM binding intensity (ln)” value is 9.72.
“TTTTTCCCCCTTTTTTTGATTTTTATCTTAATTCTA [TGCATGCA_negctrl_site287]”: the “gcPBM binding intensity (ln)” value was 9.48.
In the case of “TATTATATTGTTCATTTACACTTTCATTTTAAAAAA [CACACA_negctrl_site260]” it was 9.15; in that of “TTTTTTAAAATAATAGGTACACATAAAAAAAAAAAA [XGTACX_site2517]”, 9.1; in that of “AATGATGTTGTATTGTTTCGATATAACATCTAATTT [GTGCAC_negctrl_site309]”, 9.1.
For “TTTTTTCATTTTTTATTTTTTTATTTTTTACATATT [GTGCAC_negctrl_site137]”, the “gcPBM binding intensity (ln)” value was 9.53.
With “AAGGATTATTTTAATCGTACATGTGTAAATAATATA [XGTACX_site6177]”, the “gcPBM binding intensity (ln)” value is 9.17.
Turning to “TTATTTATTTTCATATGTACTTATTTATAGAGGTTG [XGTACX_site5599]”, the “gcPBM binding intensity (ln)” value was found to be 9.27.
As to “CATACATACATACATACACACATATATATATATATG [CACACA_site1995]”, the “gcPBM binding intensity (ln)” value was determined as 9.67.
“TATATATATAGACACACACACATATAAATAAATAAA [CACACA_site444]”: the “gcPBM binding intensity (ln)” value was 10.1.
For the sequence “AAAAAAAAATAATATACACACTCCAATATAAAAAAT [CACACA_site3958]”, the “gcPBM binding intensity (ln)” value was 9.75.
In the case of “TGTGTATTATAAACATGTACATAAAAATACGATATT [XGTACX_site3643]” it was 9.53; in that of “CGCACTAAAAAACACACACACACACCCATATATATA [CACACA_site4152]”, 10.3; in that of “TTAGGATATTTATTTCGTACATATATTTTTAATTGT [XGTACX_site582]”, 9.12.
For the sequence “AATTTTTATATAATTTAACACACATTTCATATAAAA [CACACA_site9018]”, the “gcPBM binding intensity (ln)” value worked out at 9.27.
As for “TACTTCATATAATTAGCACACAATAATTTCTCATTT [CACACA_site2872]”, the figure is 9.42; as for “TATAAATTATTTATCACACATAAAACAAAAATAAGA [CACACA_site5493]”, 9.44.
For the sequence “ATATATATTAAAAATAGTACATATAATAAAAATCAT [XGTACX_site4265]”, the “gcPBM binding intensity (ln)” value was found to be 9.48.
Take “TACATATTCCTACAAATGTATAAATTATAAATATTA [XGTACX_negctrl_site30]”: the “gcPBM binding intensity (ln)” value turned out to be 8.9.
On to “AACGATATAGGTACTACACACATTATGTCATCCTAT [CACACA_site7205]”, for which the “gcPBM binding intensity (ln)” value worked out at 9.73.
Regarding “ATATGAAATATATGTAGTACACATAATTAAAAGTAG [XGTACX_site6490]”, the “gcPBM binding intensity (ln)” value is 9.38.
As for “TGTATATGTTTAATTAGTACATATAAAGTAACAATA [XGTACX_site1207]”, the figure is 9.24; as for “AATAATATACCTCTTGTGCACATATTAAAAGTTCAT [GTGCAC_site9536]”, 9.4.
“TTCGTCTTTTTTCTCACACACCCTTTTTATTAAAAG [CACACA_site7225]”: the “gcPBM binding intensity (ln)” value amounted to 9.59.
For the sequence AGAATTAAAATAAAGGTGCATTTTTTTGTTTCATGT, the “gcPBM binding intensity (ln)” value worked out at 9.31.
“AAAGAATACATATATTGTACATATATATATACCGTT [XGTACX_site6250]”: the “gcPBM binding intensity (ln)” value was 9.48.
Consider “ATAATACAAAACACAAGTACATAAATTAAAAAGATG [XGTACX_site7839]”, for which the “gcPBM binding intensity (ln)” value worked out at 9.73.
Take “TTCATTCATTTTATTACACACAAAAAAAAAAAAAAA [CACACA_site3680]”: the “gcPBM binding intensity (ln)” value was 9.07.
With “AGTTATTTTATAGAATATGAATAATTTTACTTTTCA [XGTACX_negctrl_site403]”, the “gcPBM binding intensity (ln)” value was 9.06.
“AAAAAAAAAGGTACTACACACTATTCTCAATAGAAA [CACACA_site6193]”: the “gcPBM binding intensity (ln)” value turned out to be 9.46.
With “AATTTCATTTTACTTATCTAATATTTATAATCTTTT [CACACA_negctrl_site636]”, the “gcPBM binding intensity (ln)” value stood at 9.27.
As for “AAGGTGGTTATTAAATGTACACAGACATATACAAAA [XGTACX_site3007]”, the figure is 9.33.
